# Measurements: publication PMC4336329 (PLoS ONE, 2015)
# Out of some 310,000 compounds screened, about 2,200 (0.71%) showed an effect of 50% or more. The effect is printed as a negative number. Some of the results follow.
# Target: human ether-à-go-go-related gene (hERG) potassium channel (human, UniProt Q12809)
# Test: primary screen, population patch clamp on CHO cells stably expressing hERG
# human ether-à-go-go-related gene (hERG) potassium channel, sequence (Q12809 whole entry, looked up): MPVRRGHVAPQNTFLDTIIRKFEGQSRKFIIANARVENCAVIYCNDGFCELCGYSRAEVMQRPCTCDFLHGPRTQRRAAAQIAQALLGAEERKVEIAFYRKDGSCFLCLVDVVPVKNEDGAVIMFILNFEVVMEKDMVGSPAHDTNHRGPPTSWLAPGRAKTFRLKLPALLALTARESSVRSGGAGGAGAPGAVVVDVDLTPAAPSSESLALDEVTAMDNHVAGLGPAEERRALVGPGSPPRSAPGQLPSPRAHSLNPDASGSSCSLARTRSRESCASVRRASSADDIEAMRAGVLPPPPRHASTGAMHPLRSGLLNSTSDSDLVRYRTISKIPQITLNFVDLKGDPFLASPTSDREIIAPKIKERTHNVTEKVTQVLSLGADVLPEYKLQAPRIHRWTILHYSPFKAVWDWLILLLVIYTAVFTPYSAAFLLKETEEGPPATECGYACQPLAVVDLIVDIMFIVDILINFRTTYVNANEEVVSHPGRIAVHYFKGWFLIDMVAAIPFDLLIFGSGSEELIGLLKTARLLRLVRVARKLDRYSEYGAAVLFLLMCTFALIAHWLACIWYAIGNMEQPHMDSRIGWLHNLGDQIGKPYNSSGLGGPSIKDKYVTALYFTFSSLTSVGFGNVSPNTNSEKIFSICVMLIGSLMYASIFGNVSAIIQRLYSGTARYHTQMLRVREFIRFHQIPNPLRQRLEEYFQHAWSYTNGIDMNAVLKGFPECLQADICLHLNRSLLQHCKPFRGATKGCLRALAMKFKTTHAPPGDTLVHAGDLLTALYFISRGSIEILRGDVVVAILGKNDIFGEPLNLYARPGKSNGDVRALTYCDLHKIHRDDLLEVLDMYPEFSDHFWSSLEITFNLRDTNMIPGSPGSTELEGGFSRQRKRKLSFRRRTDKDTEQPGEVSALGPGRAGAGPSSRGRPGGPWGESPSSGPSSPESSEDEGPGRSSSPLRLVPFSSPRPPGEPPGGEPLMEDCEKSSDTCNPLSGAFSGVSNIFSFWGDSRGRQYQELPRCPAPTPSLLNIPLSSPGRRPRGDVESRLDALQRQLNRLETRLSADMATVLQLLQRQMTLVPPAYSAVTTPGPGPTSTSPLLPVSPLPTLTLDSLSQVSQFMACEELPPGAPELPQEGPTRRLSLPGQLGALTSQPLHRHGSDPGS
row,Structure (SMILES),"hERG current change (%, negative = inhibition) at 1uM [%]"
1,CCCn1nnc(NC(=S)NC(=O)c2cccs2)n1,3.69
2,COc1cc(/C=N/NC(=O)C(Cc2c[nH]c3ccccc23)NC(=O)OCc2ccccc2)cc([N+](=O)[O-])c1O (centres unmarked),7.07
3,C=CCN(CC=C)CCOc1ccc2ccccc2c1.O=C(O)C(=O)O,2.75
4,Cc1[nH]c(=S)c(C#N)c(C)c1CC(=O)c1ccc(Br)cc1,12.7
5,CS(=O)(=O)N(CC(=O)NC1CCCC1)c1cccc(F)c1,-11.5
6,N=c1oc2ccc3ccccc3c2cc1-c1nc(-c2ccccc2)cs1,5.75
7,O=CN1CCN(C(=O)c2cc3cc(Cl)ccc3[nH]2)CC1,5.52
8,CC1=CS/C(=C(/C#N)C(=O)N2CCOCC2)N1c1ccccc1,13.9
9,COc1ccc(-c2ncn(CCC#N)c2[N+](=O)[O-])cc1,9.08
10,COc1cccc(-n2nnc3c(=O)n(CC(=O)Nc4cc(C)on4)cnc32)c1,16
11,CSc1cccc(NC(=S)N(CCC(C)C)C2CCN(C(C)=O)CC2)c1,0.742
12,O=C(CN(Cc1ccccc1)S(=O)(=O)c1ccc(F)cc1)NCc1cccnc1,-31.9
13,C=CCN(c1ccccc1)S(=O)(=O)c1cccc(C(=O)OCC(=O)NCCOC)c1,2.49
14,Cc1cc(=O)n2nc(N3CCCC(C(=O)NCc4cccc(Cl)c4)C3)sc2n1 (centres unmarked),-14.9
15,Cc1ccc(S(=O)(=O)Nc2cccc(C(=O)N3CCN(c4ccccc4O)CC3)c2)cc1F,1.17
16,Cc1ccnc(SCCn2c(N(C)Cc3ccccc3)nc3c2c(=O)n(C)c(=O)n3C)n1,0.694
17,CC(C)(C)c1ccc(OCC(=O)NNC(=O)C2CCCO2)cc1 (centres unmarked),11.5
18,O=C(NCc1ccco1)c1ccc2nccnc2c1,-24.1
19,CCc1ccc(NC(=O)N2CCN(c3ccccc3)CC2)cc1,12.7

row,Structure (SMILES),"hERG current change (%, negative = inhibition) at 1uM [%]"
1,CN(C)c1nc(NCc2ccccc2)nc(N/N=C/c2ccc(Cl)cc2Cl)n1,20.3
2,Cc1csc2ncnc(N3CCN(C(=S)Nc4ccc(C(F)(F)F)cc4)CC3)c12,8.21
3,CCCc1c(C(=O)N/N=C/C(C)=C/c2ccco2)nnn1-c1nonc1N,8.25
4,COC(=O)CSc1nc(NC(C)=O)nc(C)c1Br,1.91
5,Cc1noc(C)c1CSCC(=O)N(C)CC(=O)Nc1ccccc1C(F)(F)F,14.8
6,CCn1c(C)nc2cc(C(=O)NNS(=O)(=O)c3c(C)c(C)cc(C)c3C)ccc21,-0.83
7,CC(Oc1ccc([N+](=O)[O-])cc1)C(=O)NCC1CCCO1 (centres unmarked),9.28
8,COc1ccc(NC(=O)COC(=O)c2cccc(S(=O)(=O)N3CCCCC3)c2)c(OC)c1,4.49
9,Cc1ccc(/C(=N\S(=O)(=O)c2ccc(Br)cc2)Nc2ccccc2C)cc1,6.23
10,CC1=NOC(=O)/C1=C/c1ccc(O)c(Cl)c1,13.6
11,Cc1ccc(Cn2c(=O)c3c(nc4n3CCN4Cc3ccco3)n(C)c2=O)cc1,1.58
12,COc1cccc(-n2nnc3c(=O)n(CC(=O)Nc4ccccc4C)cnc32)c1,3.6
13,CC1(C)CC(NC(=O)COc2ccc3c4c(c(=O)oc3c2)CCCC4)CC(C)(C)N1,11.3
14,CCN(C(=O)c1cnc(OC)cc1C(F)(F)F)c1ccc(Cl)cc1,8.24
15,CN(CC1CCCN(CCc2ccc(F)cc2)C1)C(=O)CCC(F)(F)F (centres unmarked),-31.6
16,CCCC(=O)N1CCc2cc(OC)c(OC)cc2C1COc1ccccc1OC (centres unmarked),13.6
17,CC(C)CC(=O)c1c[nH]c(C(=O)N2CCN(Cc3ccccc3)CC2)c1,2.04
18,O=C(O)c1ccc(N=C2NC(=O)C(CO)(CO)S2)cc1,20.4
19,CSc1ccc(CCNS(=O)(=O)c2csc(C(N)=O)c2)cc1,1.03

row,Structure (SMILES),"hERG current change (%, negative = inhibition) at 1uM [%]"
1,O=C(NC(=S)Nn1cnnc1)c1ccccc1Br,0.675
2,Cn1c(SCC(=O)NC(c2ccccc2)c2ccccc2)nnc1-c1cccs1,6.81
3,Cc1nc2c(C(=O)NCCc3ccccc3)c[nH]n2c(=O)c1Cl,2.64
4,CCOC(=O)c1ccc(Nc2nnc3nc(C)cc(C)n23)cc1,15.7
5,CC(Sc1nncn1C)C(=O)Nc1ccccc1-c1ccccc1 (centres unmarked),16.7
6,CCOC(=O)c1c(-c2ccco2)csc1NC(=O)COC(=O)c1cnc(C)cn1,6.69
7,O=C(c1ccc(S(=O)(=O)c2ccccc2)cc1)N1CCCCCC1,1.02
8,CCc1ccc(C(=O)N2CCN(c3ccc(F)cc3)CC2)s1,0.316
9,[O-][n+]1c2ccc3nonc3c2nn1-c1ccccc1Cl,13.1
10,C=CCNC(=O)CN(c1ccc(OC)cc1OC)S(C)(=O)=O,15.2
11,Cc1cc(=O)n2nc(N3CCC(C(=O)NCc4ccc(Cl)cc4)CC3)sc2n1,-23.3
12,O=C(O)CC/C(=N\NC(=O)c1ccccc1Br)c1ccccc1,19
13,COc1ccccc1NC(=O)c1c(C)cc(=O)oc1C,8.99
14,CC(C)CC(NC(=O)CNC(=O)C1O[C@@H]2OC(C)(C)O[C@@H]2[C@H]2OC(C)(C)O[C@@H]12)C(=O)O (some centres unmarked),15.7
15,O=C(NC(C(=O)c1ccccc1)N1CCOCC1)c1ccccc1 (centres unmarked),9.98
16,Cc1ccc(S(=O)(=O)NNC(=O)Nc2ccc([N+](=O)[O-])cc2)c(C)c1,4.33
17,CCOC(=O)c1[nH]c2ccccc2c1NC(=O)C(CC)CC,13
18,Cc1ccc(-c2nn(-c3ccccc3)cc2C(=O)O)o1,19.2
